Reference: the supplement of paper PMC12217912
The list shows a part of the results. The full chains were built here from the parent and the listed change. Inactive controls read about 0.05.

B1: TEV protease; numbered along this chain (parent)
chain: MGESLFKGPRDYNPISSSICHLTNESDGHTTSLYGIGFGPFIITNKHLFRRNNGTLVVQSLHGVFKVKDTTTLQQHLVDGRDMIIIRMPKDFPPFPQKLKFREPQREERICLVTTNFQTKSMSSMVSDTSCTFPSGDGIFWKHWIQTKDGQCGSPLVSTRDGFIVGIHSASNFTNTNNYFTSVPKNFMELLTNQEAQQWVSGWRLNADSVLWGGHKVFMVKPEEPFQPVKEATQL

Variants of: B1
Test: raw area under fraction-flipped curve 0-4 h after induction (AUC4h, not background-subtracted), DNA-recorder readout of cleavage of the substrate (dimensionless); higher = more cleavage of the substrate by the protease variant
Conditions: temperature: 34 °C; time window: 0-4 h after rhamnose induction
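Note: Bxb1 expression induced with 0.2% (w/v) L-rhamnose at OD600 near 0.5, cultures sampled hourly, flipped fraction per protease–substrate barcode pair counted by paired-end Illumina sequencing.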

Row | Variant | area with substrate ENCYFQS | area with substrate ENDYFQS | area with substrate ENEYFQS | area with substrate ENFYFQS | area with substrate ENGYFQS | area with substrate ENHYFQS | area with substrate ENKYFQS | area with substrate ENMYFQS | area with substrate ENNYFQS | area with substrate ENPYFQS | area with substrate ENQYFQS | area with substrate ENSYFQS | area with substrate ENTYFQS | area with substrate ENVYFQS | area with substrate ENWYFQS | area with substrate ENIYFQS | area with substrate ENYYFQS | area with substrate ENRYFQS | area with substrate ENAYFQS
1 | S26K | 0.0732 | 0.0697 | 0.0652 | 0.0468 | 0.0647 | 0.0713 | 0.0676 | 0.0647 | 0.0611 | 0.059 | 0.0616 | 0.054 | 0.0683 | 0.0628 | 0.0438 |  |  |  | 
2 | V157A | 0.0649 | 0.0748 | 0.0775 | 0.0481 | 0.0598 |  | 0.0678 |  | 0.0635 |  |  | 0.0749 |  | 0.0609 | 0.0493 | 0.09 | 0.0526 |  | 
3 | F140K |  | 0.0762 | 0.059 | 0.0493 | 0.0375 |  |  |  |  | 0.0607 | 0.0518 |  |  | 0.0564 |  | 0.0706 |  | 0.0511 | 
4 | K221Q | 0.0524 | 0.0655 |  |  |  | 0.0595 |  | 0.0574 |  |  | 0.0621 | 0.0578 | 0.0575 |  |  |  |  | 0.058 | 
5 | H215D | 0.0597 | 0.0698 |  | 0.075 | 0.063 | 0.0661 | 0.0638 | 0.0615 | 0.0678 | 0.0605 | 0.0578 | 0.0548 | 0.0621 | 0.0545 | 0.0607 |  |  | 0.0635 | 
6 | P222S | 0.0705 | 0.0541 | 0.0606 | 0.0506 | 0.0564 | 0.0683 |  | 0.0589 | 0.0606 | 0.0714 | 0.0572 | 0.0616 | 0.0794 |  |  |  |  |  | 
7 | S4R | 0.0649 | 0.0563 | 0.0697 | 0.0522 | 0.0517 | 0.0482 | 0.0564 | 0.136 | 0.0712 | 0.0345 | 0.0707 | 0.0632 | 0.068 | 0.0793 |  | 0.128 | 0.037 | 0.0636 | 
8 | F187Q | 0.055 |  |  |  | 0.0622 | 0.0619 |  |  | 0.0558 |  | 0.0567 | 0.049 | 0.0456 | 0.0552 |  | 0.0569 | 0.0445 | 0.0606 | 
9 | I167T | 0.0462 | 0.0631 | 0.0412 | 0.0593 | 0.0682 | 0.0488 | 0.0533 | 0.0564 | 0.0509 |  | 0.0524 | 0.0593 | 0.0552 | 0.0565 | 0.0521 | 0.053 |  |  | 
10 | T55G | 0.0585 | 0.0628 | 0.0438 | 0.0658 | 0.0708 | 0.0516 | 0.0724 | 0.0764 | 0.0569 |  | 0.0569 | 0.0564 | 0.0427 | 0.0838 |  | 0.109 |  | 0.0549 | 
11 | T115N | 0.0625 | 0.0615 |  |  | 0.0527 | 0.0532 |  | 0.0872 | 0.0593 | 0.0531 | 0.0716 | 0.0304 | 0.0822 | 0.0852 |  |  |  | 0.0457 | 
12 | I139G | 0.0883 | 0.0624 | 0.0584 | 0.0898 |  | 0.0553 | 0.0656 | 0.0707 | 0.0681 | 0.0514 | 0.0612 | 0.0535 | 0.0502 | 0.0601 |  | 0.118 |  | 0.0411 | 
13 | T23I | 0.065 | 0.0594 | 0.0428 |  | 0.0692 | 0.0633 | 0.0557 | 0.0797 | 0.0491 | 0.0585 | 0.0636 | 0.0546 | 0.0799 | 0.0761 |  |  |  |  | 
14 | D82Y |  | 0.058 | 0.0547 |  | 0.0617 | 0.0499 |  | 0.0483 |  |  | 0.0471 |  |  | 0.0693 |  |  |  |  | 
15 | F92H |  | 0.0608 |  |  | 0.0625 |  |  |  |  |  |  | 0.0429 | 0.0718 |  |  | 0.11 | 0.0562 | 0.0492 | 
16 | S60L |  | 0.0515 |  |  | 0.0513 | 0.047 |  |  |  |  | 0.0585 | 0.0718 | 0.08 | 0.0686 |  | 0.0958 |  |  | 
17 | E224F |  | 0.0654 |  | 0.0655 | 0.0837 |  |  | 0.0879 |  |  | 0.0567 | 0.0626 | 0.0643 |  |  | 0.101 | 0.0615 | 0.0688 | 0.0602
18 | Q227I |  | 0.0494 |  |  | 0.0477 | 0.044 |  |  |  |  | 0.052 |  |  |  | 0.0515 |  |  | 0.0615 | 0.105
19 | W203Y | 0.0683 |  | 0.0551 |  |  | 0.0519 |  |  |  |  | 0.0553 | 0.0725 | 0.0519 | 0.0632 |  | 0.0957 |  | 0.0612 | 
20 | F38P | 0.04 | 0.0444 | 0.0444 |  | 0.0504 | 0.0189 | 0.0618 | 0.0413 | 0.048 | 0.0355 | 0.0443 |  | 0.042 | 0.0257 |  |  | 0.0364 | 0.0372 | 
21 | Q234K | 0.0663 | 0.0462 | 0.0467 | 0.0542 | 0.0664 | 0.0433 | 0.0524 |  | 0.0594 |  | 0.064 | 0.0488 | 0.0522 | 0.0751 | 0.0523 |  | 0.0587 | 0.0612 | 0.0694
22 | Q234I | 0.0649 | 0.0553 | 0.0584 |  | 0.0605 | 0.0503 | 0.0581 |  | 0.0618 | 0.062 | 0.0561 | 0.0284 | 0.064 |  | 0.0467 |  | 0.0547 |  | 0.0667
23 | S32H | 0.0716 | 0.0605 | 0.0587 | 0.0431 | 0.0569 | 0.0584 | 0.0873 |  | 0.0596 | 0.058 | 0.055 | 0.0585 | 0.0711 | 0.0791 |  | 0.0937 |  | 0.0602 | 
24 | L33P | 0.0486 | 0.0538 | 0.0503 |  | 0.0432 |  | 0.0288 | 0.0485 | 0.0524 | 0.056 | 0.0485 | 0.047 | 0.047 | 0.0551 | 0.0424 | 0.0399 | 0.0548 | 0.0416 | 
25 | D137L |  | 0.0625 | 0.0778 | 0.0729 | 0.0618 | 0.0846 | 0.0677 |  | 0.0623 | 0.0526 | 0.0483 | 0.0548 | 0.068 | 0.0848 |  | 0.0908 | 0.0624 |  | 
26 | F180L | 0.102 |  |  | 0.0574 |  | 0.0589 |  |  | 0.0642 | 0.0524 |  | 0.0541 |  | 0.0818 | 0.0603 |  | 0.0653 |  | 
27 | P225I |  | 0.0562 | 0.056 | 0.0286 | 0.0576 | 0.0671 | 0.0533 |  |  |  | 0.0291 | 0.051 | 0.0455 |  |  | 0.0954 |  |  | 0.0435
28 | P225F | 0.0372 | 0.0669 | 0.0587 | 0.0543 | 0.0471 |  |  | 0.0694 | 0.0602 |  | 0.0723 | 0.069 |  | 0.0667 |  | 0.0669 |  |  | 0.0618
